For assay [1], the system named is A549-Dual. Nature of the assay: NF-kB reporter (SEAP) activity, viability-corrected, relative to vehicle (fold change vs vehicle); higher = more activation of STING-IRF / NF-kB immune response reporter. The note with it: 10 µM.
For assay [2], the system named is A549-Dual. In words: ISRE reporter (Lucia luciferase) activity, viability-corrected, relative to vehicle (fold change vs vehicle); higher = more activation of STING-IRF / NF-kB immune response reporter. The note with it: 10 µM.

The list shows a part of the results. Single values of this set are uncertain. Values with irradiation are relative to irradiated vehicle.
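For NF-kB reporter (SEAP) activity, viability-corrected, relative to vehicle in this document: viability correction based on the alamar blue assay, with concentrations leaving 10% survival or less dropped.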

As for `NC(=O)CC[C@H](N)C(=O)O` [L-Glutamine], the NF-kB reporter in the assay on A549-Dual [1] (irradiation: 8 Gy/4 fr) was found to be 0.804; in the assay with A549-Dual [1] (irradiation: none) it was 0.813. The ISRE reporter in the assay with A549-Dual [2] (irradiation: 8 Gy/4 fr) amounted to 0.9; with A549-Dual [2] (irradiation: none), 0.886.

For the molecule `CCCc1nc(C(C)(C)O)c(C(=O)O)n1Cc1ccc(-c2ccccc2-c2nnn[nH]2)cc1` [Olmesartan], the NF-kB reporter with A549-Dual [1] (irradiation: 8 Gy/4 fr) worked out at 0.762; in the assay with A549-Dual [1] (irradiation: none), 1.2. For the same molecule, the ISRE reporter amounted to 0.745 with A549-Dual [2] (irradiation: 8 Gy/4 fr) and 0.749 with A549-Dual [2] (irradiation: none).

Consider `C=C(c1ccc(C(=O)O)cc1)c1cc2c(cc1C)C(C)(C)CCC2(C)C` [Bexarotene], for which the NF-kB reporter with A549-Dual [1] (irradiation: 8 Gy/4 fr) worked out at 0.117; in the assay on A549-Dual [1] (irradiation: none) it was 0.331. Further, the ISRE reporter amounted to 0.0596 in the assay on A549-Dual [2] (irradiation: 8 Gy/4 fr) and 0.298 with A549-Dual [2] (irradiation: none).

As to `O=C(O)C(O)C(O)C(OC1OC(CO)C(O)C(O)C1O)C(O)CO` (stereo unspecified) [Lactobionic acid], the NF-kB reporter in the assay with A549-Dual [1] (irradiation: 8 Gy/4 fr) was 1.08; in the assay with A549-Dual [1] (irradiation: none), 1.17. For the same molecule, the results for the ISRE reporter in the assay on A549-Dual [2] (irradiation: 8 Gy/4 fr) and in the assay with A549-Dual [2] (irradiation: none) were 1.12 and 0.995, respectively.

Take `O=C(NC1CCN(CCCCC2(C(=O)NCC(F)(F)F)c3ccccc3-c3ccccc32)CC1)c1ccccc1-c1ccc(C(F)(F)F)cc1` [Lomitapide]: the NF-kB reporter amounted to 0.844 in the assay on A549-Dual [1] (irradiation: 8 Gy/4 fr) and 0.806 in the assay with A549-Dual [1] (irradiation: none). For the same molecule, the figures for the ISRE reporter in the assay with A549-Dual [2] (irradiation: 8 Gy/4 fr) and in the assay with A549-Dual [2] (irradiation: none) were 0.611 and 1.77, respectively.

For the molecule `CCCOC(=O)c1cc(O)c(O)c(O)c1` [Propyl gallate], the NF-kB reporter in the assay on A549-Dual [1] (irradiation: 8 Gy/4 fr) was 0.394; in the assay on A549-Dual [1] (irradiation: none) it was 0.527. Moreover, the results for the ISRE reporter in the assay with A549-Dual [2] (irradiation: 8 Gy/4 fr) and with A549-Dual [2] (irradiation: none) were 0.596 and 0.538, respectively.

As for `COc1ccc2cc(C(=O)O)ccc2c1` [6-Methoxy-2-naphthoic acid], the NF-kB reporter came to 0.628 in the assay with A549-Dual [1] (irradiation: 8 Gy/4 fr) and 0.562 with A549-Dual [1] (irradiation: none). The ISRE reporter in the assay on A549-Dual [2] (irradiation: 8 Gy/4 fr) came to 0.638; in the assay with A549-Dual [2] (irradiation: none) it was 0.406.

In the case of `CN(CCCCCCCCCCN(C)C(=O)Oc1cccc([N+](C)(C)C)c1)C(=O)Oc1cccc([N+](C)(C)C)c1.[Br-].[Br-]` [Demecarium Bromide], the values for the NF-kB reporter in the assay with A549-Dual [1] (irradiation: 8 Gy/4 fr) and in the assay with A549-Dual [1] (irradiation: none) were 0.696 and 1.1, respectively. Also, the ISRE reporter with A549-Dual [2] (irradiation: 8 Gy/4 fr) turned out to be 0.551; with A549-Dual [2] (irradiation: none), 0.686.

In the case of `Cl.O=C1CN2Cc3c(ccc(Cl)c3Cl)NC2=N1` [Anagrelide HCl], the results for the NF-kB reporter in the assay on A549-Dual [1] (irradiation: 8 Gy/4 fr) and in the assay on A549-Dual [1] (irradiation: none) were 1.24 and 1.91, respectively. For the same molecule, the ISRE reporter amounted to 1.02 with A549-Dual [2] (irradiation: 8 Gy/4 fr) and 2.93 in the assay with A549-Dual [2] (irradiation: none).

Take `CC(OC1OCCN(Cc2n[nH]c(=O)[nH]2)C1c1ccc(F)cc1)c1cc(C(F)(F)F)cc(C(F)(F)F)c1` (stereo unspecified) [Aprepitant]: the results for the NF-kB reporter in the assay on A549-Dual [1] (irradiation: 8 Gy/4 fr) and with A549-Dual [1] (irradiation: none) were 0.455 and 0.768, respectively. Moreover, the ISRE reporter in the assay with A549-Dual [2] (irradiation: 8 Gy/4 fr) turned out to be 0.511; in the assay with A549-Dual [2] (irradiation: none), 1.52.

On to `CCCCC(CC)COC(=O)c1ccccc1O` (stereo unspecified) [Octisalate], for which the NF-kB reporter amounted to 0.731 in the assay with A549-Dual [1] (irradiation: 8 Gy/4 fr) and 1.19 with A549-Dual [1] (irradiation: none). Moreover, the ISRE reporter in the assay with A549-Dual [2] (irradiation: 8 Gy/4 fr) was 0.762; in the assay with A549-Dual [2] (irradiation: none), 1.06.

Take `CC1CS(=O)(=O)CCN1/N=C/c1ccc([N+](=O)[O-])o1` (stereo unspecified) [Nifurtimox]: the results for the NF-kB reporter in the assay with A549-Dual [1] (irradiation: 8 Gy/4 fr) and in the assay with A549-Dual [1] (irradiation: none) were 0.785 and 0.906, respectively. For the same molecule, the ISRE reporter in the assay on A549-Dual [2] (irradiation: 8 Gy/4 fr) worked out at 0.694; in the assay on A549-Dual [2] (irradiation: none), 0.72.

In the case of `CN1CCN(CCCN2c3ccccc3Sc3ccc(C(F)(F)F)cc32)CC1` [Trifluoperazine], the NF-kB reporter was found to be 0.775 with A549-Dual [1] (irradiation: 8 Gy/4 fr) and 0.708 in the assay with A549-Dual [1] (irradiation: none). Besides, the figures for the ISRE reporter in the assay on A549-Dual [2] (irradiation: 8 Gy/4 fr) and with A549-Dual [2] (irradiation: none) were 0.641 and 0.764, respectively.

As to `CCCCCCCCCCCCCCCCOP(=O)([O-])OCC[N+](C)(C)C` [Miltefosine], the values for the NF-kB reporter in the assay on A549-Dual [1] (irradiation: 8 Gy/4 fr) and with A549-Dual [1] (irradiation: none) were 0.995 and 0.923, respectively. For the same molecule, the ISRE reporter in the assay with A549-Dual [2] (irradiation: 8 Gy/4 fr) was found to be 1.01; in the assay on A549-Dual [2] (irradiation: none), 0.93.

Source of the values: the supplement of paper PMC9174493.
